Experimental data: the supplement of paper PMC10126150
Sequences with one replicate were seen in a single cluster, so their values are uncertain.

System: ATP
Test: switch fluorescence ratio, 500 uM ATP over buffer (Cy3 cluster intensity, sum of 5 cycles each) (fold (ratio)); higher = stronger signal-on switching upon ATP binding; sequences stand for … in TCGTCGGCAGCGTCAGATGTGTATAAGAGACAGTTTTTTTTTTTTTTTTTTTTTTTTT…TC
Settings: aptamer strand: ATP DNA aptamer (quencher-CACCTGGGGGAGTATTGCGGAGGAAGG + anchor), 100 nM annealed; ATP concentration: 500 uM; one replicate
Outline: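 The fluorescence ratio divides summed target-cycle Cy3 intensity by summed buffer-cycle Cy3 intensity for each cluster and is averaged per switch-domain sequence. Cy3-labelled switching-strand clusters on a modified Illumina MiSeq flow-cell were annealed to 100 nM quencher-labelled ATP aptamer, then imaged in selection buffer and again after 15 min with 500 uM ATP at 22 °C. Five such cycles were run, with NaOH stripping and re-annealing between them, and clusters outside 100-1000 RFU were excluded.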
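Further: ATP exposure 15 min at 22 °C before imaging.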

Row | Sequence | switch fluorescence ratio
1 | ATCATTGAT | 0.985
2 | ACGTTCGCTT | 1.08
3 | TTGCGTCTAC | 1
4 | CGATCACGCG | 0.985
5 | TCGATCGGA | 1.01
6 | ACCCAACTAA | 1.13
7 | GCAGGAATGC | 1.45
8 | GACCCAACAA | 1.04
9 | AGGTACCGGG | 1.03
10 | GAGTTCGGGT | 0.981
11 | TGTCTGGT | 0.976
12 | GGACAAGTGC | 1.03
13 | ATGTAGGATA | 1.01
14 | TTTAAACCTA | 1.03
15 | CGGGGTCACG | 0.97
16 | GCCCACTTAA | 1.03
17 | GCACCCGAT | 1.02
18 | AACGGATGCT | 0.988
19 | TGGCCGCCCG | 0.961
20 | CCCCGGCCGC | 1.21
21 | AAAAAGCTAT | 0.959
22 | TATCGTGTGG | 1.02

Row | Sequence | switch fluorescence ratio
23 | AGTCGTTGTT | 1
24 | ACTTTATGTC | 1.06
25 | TCGGTGCATT | 1.06
26 | CCACTTTAGC | 1.13
27 | AATCGCTGGA | 0.966
28 | TCAAAATCAG | 1
29 | AAAACTGGAA | 1.01
30 | TGCTTTGACG | 1.03
31 | TCTTACCCCG | 1.02
32 | ACTGGGAGTT | 0.985
33 | ACAAAAGTCG | 1.01
34 | CTTTAGAGAG | 0.993
35 | GGGGACTTGA | 0.995
36 | CGATACTTC | 1.12
37 | TCTGGTAAAG | 1.01
38 | TAGGTGCACC | 0.963
39 | TTGAGTGCTA | 0.974
40 | GGCGG | 1
41 | TAATCAGCA | 1.03
42 | TGCGGCTAGT | 0.988
43 | GGGTAGCACT | 0.959
44 | ATGTATAACT | 0.984

Row | Sequence | switch fluorescence ratio
45 | CGCATAATTT | 1.07
46 | CCATGGCCGT | 1.01
47 | GGCTTAAATA | 1
48 | TCCGTCATCC | 1.57
49 | ATTTGCTTGG | 1
50 | CATGTATGAT | 1.03
51 | TGCGGAGAGT | 1.04
52 | TCACTAGCGG | 1.05
53 | AGAATAGTGT | 1.01
54 | GCCAATGCCG | 0.946
55 | ACGGGTCATG | 1.01
56 | CCAGGAGAGC | 1.13
57 | CATGTTCGGT | 0.966
58 | ATAAGTTGAA | 0.963
59 | GGGTCATCGT | 0.968
60 | TAACGACGGC | 1.09
61 | GCGATGCCCG | 0.921
62 | CCAACTTGGG | 1.02
63 | ATTAGACCC | 1
64 | GAGCAAATG | 1.13
65 | GTTATTTCAA | 1.03
66 | AATGTGTCTG | 0.978

Row | Sequence | switch fluorescence ratio
67 | ATGCCTCGCT | 1.02
68 | AAGCAGCGTC | 0.998
69 | AATCCTGAGG | 1.01
70 | GTTGGATTGC | 0.98
71 | CGGACCCATT | 1
72 | TCCAATGTTC | 1.36
73 | GTACTAAACC | 1.14
74 | CCTTTAACAT | 1.01
75 | GGCTGTAGTA | 0.989
76 | GGTATTGCCC | 0.947
77 | GCGATACTTG | 2.13
78 | CTAAAATACA | 0.98
79 | GTAGGAGCAG | 1.05
80 | CCCCGGTATA | 2.63
81 | TAGAGCGCTC | 0.984
82 | TGGAACTAGA | 0.993
83 | CCAAACATT | 1.02
84 | GATGGTTGTT | 0.991
85 | TATCGCATCT | 1.04
